57 compounds from publication PMC4336329 (PLoS ONE, 2015) can be followed below.

Structures are written as SMILES. Hit rate of the full screen: of about 310,000 compounds, about 14,000 (4.5%) showed an effect of 50% or more. The effect is printed as a negative number. Some of the results follow.
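Further: peak tail current of the secondary pulse compared with the same well before compound.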

The target in the test is human ether-à-go-go-related gene (hERG) potassium channel (human, UniProt Q12809). The experiment in a line: primary screen, population patch clamp on CHO cells stably expressing hERG.
Sequence of human ether-à-go-go-related gene (hERG) potassium channel (Q12809 whole entry, looked up): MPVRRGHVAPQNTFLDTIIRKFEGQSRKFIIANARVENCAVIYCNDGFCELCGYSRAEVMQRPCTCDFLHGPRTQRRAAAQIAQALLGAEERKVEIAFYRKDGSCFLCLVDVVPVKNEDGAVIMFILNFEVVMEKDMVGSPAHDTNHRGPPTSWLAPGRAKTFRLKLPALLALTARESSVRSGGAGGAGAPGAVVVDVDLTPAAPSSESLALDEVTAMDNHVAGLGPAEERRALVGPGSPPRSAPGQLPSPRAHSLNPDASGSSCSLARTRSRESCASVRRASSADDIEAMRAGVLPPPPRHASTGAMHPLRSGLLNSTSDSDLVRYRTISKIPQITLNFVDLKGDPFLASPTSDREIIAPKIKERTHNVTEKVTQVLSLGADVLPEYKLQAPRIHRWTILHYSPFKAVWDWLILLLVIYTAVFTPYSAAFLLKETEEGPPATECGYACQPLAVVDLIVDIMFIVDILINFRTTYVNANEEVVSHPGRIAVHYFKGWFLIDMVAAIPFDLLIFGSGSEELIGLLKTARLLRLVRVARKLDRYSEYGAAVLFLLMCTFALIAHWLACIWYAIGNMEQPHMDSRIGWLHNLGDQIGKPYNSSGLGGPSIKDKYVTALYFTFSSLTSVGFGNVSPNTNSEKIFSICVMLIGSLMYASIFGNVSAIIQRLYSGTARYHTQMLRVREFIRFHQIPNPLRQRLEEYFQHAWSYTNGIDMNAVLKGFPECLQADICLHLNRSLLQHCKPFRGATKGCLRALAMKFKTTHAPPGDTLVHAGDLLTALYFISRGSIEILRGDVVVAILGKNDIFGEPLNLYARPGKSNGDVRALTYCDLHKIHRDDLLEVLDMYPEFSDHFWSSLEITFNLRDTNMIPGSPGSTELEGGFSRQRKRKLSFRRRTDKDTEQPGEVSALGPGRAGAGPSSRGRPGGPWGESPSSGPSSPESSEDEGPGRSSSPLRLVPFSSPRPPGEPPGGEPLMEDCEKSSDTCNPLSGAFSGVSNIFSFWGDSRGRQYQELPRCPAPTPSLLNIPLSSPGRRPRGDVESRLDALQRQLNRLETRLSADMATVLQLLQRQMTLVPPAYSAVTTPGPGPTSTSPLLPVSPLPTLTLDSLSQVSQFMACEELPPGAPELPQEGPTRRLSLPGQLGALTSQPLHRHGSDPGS
On to `COCCn1nnnc1CN(CCc1ccc(OC)c(OC)c1)Cc1cc2ccc(C)cc2[nH]c1=O`, for which the “hERG current change (%, negative = inhibition) at 10uM” value was -42.8%. Then `Fc1cccc(Cc2noc(CN3CCCCC3c3ccccn3)n2)c1` (stereo not drawn), with -7.9%; and `COc1ccc(C(=O)COC(=O)COc2ccc(C)c(C)c2)cc1`, with 9.07%.

As for `O=C(NC(=S)Nc1ccccc1O)c1cncc(Br)c1`, the “hERG current change (%, negative = inhibition) at 10uM” value was 20.7%. Regarding `CCOC(=O)C(NCc1ccccc1)(NC(=O)c1ccccc1)C(F)(F)F` (stereo not drawn), the “hERG current change (%, negative = inhibition) at 10uM” value is reported as -3.91%. On to `Cc1noc(/C=C/c2nn(C)cc2Cl)c1[N+](=O)[O-]`, for which the “hERG current change (%, negative = inhibition) at 10uM” value is 16.6%. Then `COc1ccc(CC(=O)Nc2ccc(-c3nnc(-c4ccc(C)cc4)o3)cc2)cc1`, with 19.1%; and `CC(=O)NC1C(=O)N(C)c2ccc(Br)cc21` (stereo not drawn), with -2.6%; and `COc1ccccc1-c1nc(-c2ccc(Br)cc2)no1`, with 12.3%. For `Cc1nn(-c2ccccc2)c(C)c1C(=O)Oc1ccccc1`, the “hERG current change (%, negative = inhibition) at 10uM” value is recorded as -2.51%. Consider `COc1ccc(/C=C2\SC(=S)N(CCC(=O)Nc3cccc(C(=O)O)c3)C2=O)cc1`, for which the “hERG current change (%, negative = inhibition) at 10uM” value is 20%.

Take `Nc1nonc1C(=Nc1ccccc1)NO`: the “hERG current change (%, negative = inhibition) at 10uM” value is 11.6%. For `COc1cc(-c2[nH]ncc2CN2CCN(Cc3cccs3)CC2)cc(OC)c1OC`, the “hERG current change (%, negative = inhibition) at 10uM” value is -50.3%. Then `Cc1ccc(-n2nnnc2SCC(=O)Nc2ccccc2-c2ccccc2)cc1C`, with -5%. `CCCn1c(N)c(C(=O)CSc2nncs2)c(=O)[nH]c1=O`: the “hERG current change (%, negative = inhibition) at 10uM” value is on record as -2.75%. As for `Cc1cc(NC(=O)c2ccc(S(=O)(=O)Nc3ccccc3)cc2)no1`, the “hERG current change (%, negative = inhibition) at 10uM” value is reported as 5.21%. In the case of `O=C(O)c1ccc(NS(=O)(=O)c2ccc3c(c2)C(=O)c2ccccc2C3=O)cc1`, the “hERG current change (%, negative = inhibition) at 10uM” value was determined as 18.5%. With `CC(C)(C)c1ccccc1NC(=O)Cn1c(=O)cnc2ccccc21`, the “hERG current change (%, negative = inhibition) at 10uM” value is listed as 3.94%. As for `O=C(O)c1cccc2c1C(=O)c1ccc(Cl)cc1S2(=O)=O`, the “hERG current change (%, negative = inhibition) at 10uM” value stood at 20.3%.

As for `CCOC(=O)C1=C(COC(=O)CNC(=O)c2ccc(Cl)cc2Cl)NC(=O)NC1C` (stereo not drawn), the “hERG current change (%, negative = inhibition) at 10uM” value was -2.23%. Then `CC(NS(=O)(=O)c1ccc([N+](=O)[O-])cc1)C(=O)NN` (stereo not drawn), with 26.7%. Regarding `C[C@]12CCC(=O)CC1CCC1C2CC[C@]2(C)C(OC(=O)CCC(=O)O)CCC12` (stereo partly drawn), the “hERG current change (%, negative = inhibition) at 10uM” value is reported as 16.8%. For the compound `Cc1cc(NCc2cccnc2)nc(N)n1`, the “hERG current change (%, negative = inhibition) at 10uM” value was found to be 6.71%.

On to `Cc1nonc1C(=O)N/N=C/c1ccc(O)c(O)c1`, for which the “hERG current change (%, negative = inhibition) at 10uM” value is -29.7%. The figure for `Cc1cc(NC(=O)CCC(=O)N(c2ccccc2C)C(C(=O)NC2CCCC2)c2ccccc2)no1` (stereo not drawn) is 25.2%. Then `CCCc1[nH]nc2c1C1(C(=O)N(C(C)C)c3ccccc31)C(C#N)=C(N)O2` (stereo not drawn), with 14%; and `Cc1ccc(NC(=O)CSc2nc3ncc(Br)cc3[nH]2)cc1C`, with 8.67%; and `COC(=O)Nc1nnc(-c2ccco2)s1`, with 9.24%. For the compound `C=CCn1c(=NC(=O)CC)n(C)c2ccccc21.Cl`, the “hERG current change (%, negative = inhibition) at 10uM” value is 16.8%. Then `Nc1cccnc1Oc1ccc(F)cc1F`, with 6.93%; and `CCCOC(=O)c1ccc(NS(=O)(=O)c2cccs2)cc1`, with -6.88%. On to `CCn1cc(/C=C(/C#N)S(=O)(=O)c2ccccc2)cn1`, for which the “hERG current change (%, negative = inhibition) at 10uM” value is given as -8.15%.

Take `CCn1c2ccccc2c2cc(CN3CCN(C(=O)c4ccco4)CC3)ccc21`: the “hERG current change (%, negative = inhibition) at 10uM” value is given as -3.06%. As for `O=C(c1cn(-c2ccccc2)nc1-c1cccnc1)N1CCN(S(=O)(=O)c2ccccc2F)CC1`, the “hERG current change (%, negative = inhibition) at 10uM” value is recorded as -70.5%.

For `CC(=O)N1CCN(CC(=O)Nc2cc(F)ccc2C)CC1`, the “hERG current change (%, negative = inhibition) at 10uM” value was -5.95%. The figure for `O=C(CSc1nnc2ccccn12)NNC(=O)c1ccc(F)cc1` is 37.3%.

Regarding `CC(=O)NCc1ccc(S(=O)(=O)NC(C(=O)O)C(C)C)cc1` (stereo not drawn), the “hERG current change (%, negative = inhibition) at 10uM” value worked out at 3.41%. Then `Cc1cc(C)cc(NC(=O)C2CCN(c3nccs3)CC2)c1`, with -0.998%; and `COc1ccccc1NC(=O)Cc1noc(CSc2n[nH]c(N)n2)n1`, with 30.5%; and `Cc1ccnc(NS(=O)(=O)c2cccc([N+](=O)[O-])c2)c1`, with 0.0315%. As for `CCOC(=O)N1CCN(C(=O)C(=O)Nc2sc3c(c2C(N)=O)CC(C)(C)OC3)CC1`, the “hERG current change (%, negative = inhibition) at 10uM” value stood at 17.4%. As to `Cc1cc(=O)oc2cc(OCC(=O)N3CCN(c4ccc(F)cc4)CC3)ccc12`, the “hERG current change (%, negative = inhibition) at 10uM” value was -53%. Then `CSc1nc2nc3c(cc2c(=O)n1-c1ccccc1)COC(C)(C)C3`, with -8.54%; and `Cc1ccc(OCC(=O)NNC(=O)c2ccc(NC(=O)C3CC3)cc2)c(C)c1`, with 16.7%. The figure for `Cc1nn2c(-c3cccc(NC(=O)c4ccco4)c3)nnc2c2ccccc12` is -5.38%; for `CC(=O)Nc1ccc(N2C(=O)CC(c3ccccc3)CC2=O)cc1` it is 9.64%. Then `COc1ccc(NC(=O)CC2C(=O)N(c3ccc(Cl)cc3)C(=S)N2CCc2ccncc2)cc1` (stereo not drawn), with -4.55%; and `Cc1cc(/C(N)=N/OC(=O)Nc2cccc(C(F)(F)F)c2)no1`, with -11.2%; and `COc1ccc(CCNC(=O)CSc2nnc(-c3cccc(C)c3)o2)cc1OC`, with -41.2%. In the case of `c1ccc(-n2ncc3c(NCCCN4CCOCC4)ncnc32)cc1`, the “hERG current change (%, negative = inhibition) at 10uM” value is -11%. Consider `O=C1N(Cc2cccnc2)C[C@@H]2C[C@@H](c3ccccc3C#Cc3ccccc3)N3CCC[C@@]123`, for which the “hERG current change (%, negative = inhibition) at 10uM” value is on record as -69.5%. On to `CC1CN(C2CC(C)(C)NC(C)(C)C2)CCC1=O` (stereo not drawn), for which the “hERG current change (%, negative = inhibition) at 10uM” value amounted to 2.16%. Then `C[C@H](C(=O)C=[N+]=[N-])N1C(=O)c2ccccc2C1=O`, with 13.5%; and `CC1=NC(=O)C(N=Nc2cccc(O)c2)N1c1ccccc1` (stereo not drawn), with 11.6%; and `CCOC(=O)c1c(N=CN(C)C)c(C#N)n2c1CCC2`, with 16.5%. Regarding `COc1ccccc1C(=O)NCC(=O)N/N=C/c1cc(Br)ccc1OCc1ccccc1`, the “hERG current change (%, negative = inhibition) at 10uM” value was determined as 3.78%.

With `O=C(COC(=O)CSc1ccc(Br)cc1)NCc1ccco1`, the “hERG current change (%, negative = inhibition) at 10uM” value was determined as 3.12%.
